From PubChem BioAssay AID1721 (National Center for Advancing Translational Sciences (NCATS), 2009)
Out of some 290,000 compounds screened, about 1,100 (0.38%) were called active. Inconclusive means that the source gave no clear call. Such entries were picked first, then a sample of the others. Calls come from the whole dose curve; as a rule, active = well fitted inhibition curve with a large enough effect; inconclusive = small, poorly fitted or top-dose-only effect, or another doubt; inactive = no such curve, though single readings can be large or run the other way. Potencies beside an inconclusive call are fits to weak or partial responses and may not hold up.

Target: Pyruvate kinase (Leishmania mexicana) (UniProt Q27686)
Test: qHTS Assay for Inhibitors of Leishmania Mexicana Pyruvate Kinase (LmPK)
Conditions: purified LmPK, Kinase-Glo ATP luminescence, 1 h; series mostly up to 57.5 µM
How it was run: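 Screened at intermediate enzyme activity to detect both inhibitors and activators: LmPK at 0.1 nM, with a 0.5 nM enzyme column as activation reference. PEP 0.5 mM, ADP 0.1 mM; ATP detected by luminescence after 1 h.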
Potency is the fitted concentration of half-maximal effect; tags give direction and shape of the fitted curve.

Sequence of UniProt Q27686 (Q27686 whole entry, looked up): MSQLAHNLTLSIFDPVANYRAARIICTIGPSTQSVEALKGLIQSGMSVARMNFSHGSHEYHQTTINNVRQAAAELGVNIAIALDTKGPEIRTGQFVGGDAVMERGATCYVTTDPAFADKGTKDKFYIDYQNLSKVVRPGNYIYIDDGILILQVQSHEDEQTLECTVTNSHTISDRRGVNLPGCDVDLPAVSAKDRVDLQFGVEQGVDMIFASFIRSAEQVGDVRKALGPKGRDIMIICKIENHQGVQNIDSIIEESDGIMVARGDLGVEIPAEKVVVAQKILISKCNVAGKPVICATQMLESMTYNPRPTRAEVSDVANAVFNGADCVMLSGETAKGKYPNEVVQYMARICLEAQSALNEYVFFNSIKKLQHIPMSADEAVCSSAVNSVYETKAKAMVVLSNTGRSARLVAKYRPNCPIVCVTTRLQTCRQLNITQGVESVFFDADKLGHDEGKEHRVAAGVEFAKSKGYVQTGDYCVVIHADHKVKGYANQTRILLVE

Question: Which Potency does the source give for `Oc1[nH]c2ccccc2c1N=Nc1nncc2ccccc12` here?
Answer: inconclusive: 25.1 µM [falling, partial curve]

Question: How did the Potency turn out when `CN=c1scc(-c2cccs2)n1/N=C/c1ccccc1O` was run?
Answer: inconclusive: 25.1 µM [falling, partial curve]

Question: For `O=C(CSc1ccccn1)c1ccc2c(c1)OCO2`, which Potency is on record?
Answer: inconclusive: 15.8 µM [falling, partial curve]

Question: How did the Potency turn out when `Cc1cc(C(=O)N/N=C/c2ccc[nH]2)no1` was run?
Answer: inactive

Question: Which Potency does the source give for `COC(=O)c1cnc(SCC(=O)c2ccccc2)n1C` here?
Answer: inconclusive: 12.6 µM [falling, partial curve]

Question: `CCN(CC)CCNC(=O)CCCCn1c(=S)[nH]c2c([nH]c3ccc(OC)cc32)c1=O` was tested. Which Potency did it give?
Answer: active: 2.82 µM

Question: With `S=c1[nH]nc(-c2cccs2)n1/N=C/c1cccs1` as the molecule, how does the Potency read?
Answer: inconclusive: 39.8 µM [falling, single point]

Question: `COc1cccc(/C=N/Nc2nccnc2Cl)c1O` was tested. Which Potency did it give?
Answer: active: 10 µM

Question: How did the Potency turn out when `CC(C)(C)C1=CC=C(C(C)(C)C)C(=O)C1=O` was run?
Answer: active: 22.4 µM

Question: `Cc1cc(C(=O)Nc2cccc(C(=O)O)c2)oc1C` was tested. Which Potency did it give?
Answer: inconclusive: 25.1 µM [falling, partial curve]

Question: `O=c1cc(O)c2sc3nc4c(c(C(F)(F)F)c3c2[nH]1)CCCCC4` was tested. Which Potency did it give?
Answer: inconclusive: 39.8 µM [falling, single point]

Question: With `CCCNC(=O)CSc1nccn1Cc1ccco1` as the molecule, how does the Potency read?
Answer: inactive

Question: For `CC(C)C(c1nnnn1Cc1ccc(F)cc1)N1CCN(c2ccc(O)cc2)CC1` (stereo not given), which Potency is on record?
Answer: inconclusive: 22.4 µM [falling, partial curve]

Question: Which Potency does the source give for `COc1cc(OC)cc(C(=O)Nc2cccc(C(C)=O)c2)c1` here?
Answer: inconclusive: 22.4 µM [falling, partial curve]

Question: How did the Potency turn out when `Cc1ccc(-c2cc(C(=O)OCC(=O)N(C)C3CCS(=O)(=O)C3)c3ccccc3n2)o1` (stereo not given) was run?
Answer: inconclusive: 39.8 µM [falling, single point]

Question: For `CCN(CC)CCN(C(=O)c1ccc2c(c1)CCCC2)c1nc2c(C)cccc2s1`, which Potency is on record?
Answer: inactive

Question: Which Potency does the source give for `COc1ccccc1/C=N/Nc1nncc2ccccc12` here?
Answer: inactive

Question: How did the Potency turn out when `CCOC(=O)c1ccc(NC(=O)N2CCN(C(=O)C3CCCO3)CC2)cc1` (stereo not given) was run?
Answer: inactive

Question: Which Potency does the source give for `COc1cccc(Cc2n[nH]c(=S)n2Cc2ccco2)c1` here?
Answer: inconclusive: 11.2 µM [falling, partial curve]

Question: `CC(=O)N1CCN(CC(=O)Nc2ccc(Cl)c(S(=O)(=O)N(C)C)c2)CC1` was tested. Which Potency did it give?
Answer: inactive

Question: How did the Potency turn out when `Oc1ccccc1-c1cc(-c2ccc3c(c2)OCCO3)n[nH]1` was run?
Answer: inconclusive: 28.2 µM [falling, single point]

Question: `CCC(=O)Nc1ccc(NC(=O)c2ccccn2)cn1` was tested. Which Potency did it give?
Answer: inconclusive: 28.2 µM [falling, single point]

Question: How did the Potency turn out when `Cc1ccc(-c2nc3ccccc3o2)cc1NC(=O)c1ccc2c(c1)OCO2` was run?
Answer: inactive

Question: For `COc1cc(OC)cc(C(=O)NC(=S)Nc2cccnc2)c1`, which Potency is on record?
Answer: inconclusive: 12.6 µM [falling, partial curve]

Question: How did the Potency turn out when `COc1ccc(-c2nc(-c3ccccc3)no2)c(OC)c1` was run?
Answer: active: 14.1 µM

Question: How did the Potency turn out when `FC(F)(F)c1cccc(NCc2n[nH]c(=S)n2C2CCCCC2)c1` was run?
Answer: inconclusive: 39.8 µM [falling, single point]

Question: Which Potency does the source give for `O=C(O)COc1ccccc1C(Nc1cccnc1)c1cc(Cl)c2cccnc2c1O` (stereo not given) here?
Answer: inactive

Question: With `Cc1ccccc1-n1c(-c2csc3ccccc23)n[nH]c1=S` as the molecule, how does the Potency read?
Answer: active: 14.1 µM

Question: For `O=C(O)c1cc(O)c2c(c1)C(=O)c1cc(O)cc(O)c1C2=O`, which Potency is on record?
Answer: inconclusive: 17.8 µM [falling, partial curve]

Question: `O=C(NC(=S)NCc1cccnc1)c1cc(Br)ccc1Cl` was tested. Which Potency did it give?
Answer: inactive

Question: With `O=C(OCc1ccc(F)cc1Cl)c1ccccn1` as the molecule, how does the Potency read?
Answer: inconclusive: 20 µM [falling, partial curve]

Question: How did the Potency turn out when `O=C(CS(=O)(=O)c1ccccc1)c1ccc2c(c1)OCCO2` was run?
Answer: active: 12.6 µM

Question: Which Potency does the source give for `CC1(C)Oc2ccc(NC(=O)C3COc4ccccc4O3)cc2O1` (stereo not given) here?
Answer: inconclusive: 20 µM [falling, single point]

Question: `O=C(CCNC(=O)C1CCN(S(=O)(=O)c2ccc(F)cc2)CC1)NCc1ccncc1` was tested. Which Potency did it give?
Answer: inactive

Question: How did the Potency turn out when `O=C(NC1CC1)C1=C[C@@H](c2coc3ccccc3c2=O)C[C@@H](OCCCCO)O1` was run?
Answer: inactive

Question: `N#CC1=C2C=CC=CN2CC1=O` was tested. Which Potency did it give?
Answer: inactive

Question: How did the Potency turn out when `NC(=O)c1ccsc1NC(=O)COc1ccccc1` was run?
Answer: inconclusive: 14.1 µM [falling, partial curve]

Question: Which Potency does the source give for `Cc1ccc(CSc2nc3ccncc3[nH]2)cc1` here?
Answer: inconclusive: 15.8 µM [falling, partial curve]

Question: With `CNS(=O)(=O)c1ccc2nc(NC(=O)c3ccc(N4C(=O)CCC4=O)cc3)sc2c1` as the molecule, how does the Potency read?
Answer: inconclusive: 14.1 µM [falling, partial curve]

Question: For `O=C(N=Nc1ccc(NOC(=O)c2ccccc2Br)cc1)c1ccccc1O`, which Potency is on record?
Answer: inconclusive: 25.1 µM [falling, partial curve]

Question: How did the Potency turn out when `Cc1ccccc1N=C1NC(=O)/C(=C/c2cccn2C)S1` was run?
Answer: inactive

Question: `Cc1ccc(/C(N)=N/OC(=O)c2ccco2)cc1` was tested. Which Potency did it give?
Answer: inconclusive: 22.4 µM [falling, partial curve]

Question: Which Potency does the source give for `CCOc1ccc(S(=O)(=O)Nc2cnc3ccccc3c2)cc1` here?
Answer: inactive

Question: `CN1C(=O)/C(=C/c2cc(N=Nc3ccccc3)ccc2O)SC1=S` was tested. Which Potency did it give?
Answer: inconclusive: 14.1 µM [falling, partial curve]

Question: How did the Potency turn out when `CC1(C)N([O-])c2cc([N+](=O)[O-])ccc2[N+]1=O` was run?
Answer: inconclusive: 15.8 µM [falling, partial curve]

Question: How did the Potency turn out when `Cc1cccc(NC(=O)c2ccc(OC3CSC3)cc2)c1` was run?
Answer: inconclusive: 7.94 µM [falling, partial curve]

Question: How did the Potency turn out when `Cc1cc(C)c(Nc2cc(S(=O)(=O)O)c(N)c3c2C(=O)c2ccccc2C3=O)c(C)c1` was run?
Answer: inconclusive: 14.1 µM [falling, partial curve]

Question: For `Cc1nn(CCc2n[nH]c(=S)n2-c2ccc(F)c(Cl)c2)c(C)c1[N+](=O)[O-]`, which Potency is on record?
Answer: inconclusive: 12.6 µM [falling, partial curve]

Question: With `C1=C(c2ccccc2)Nc2nnnn2C1c1cccs1` (stereo not given) as the molecule, how does the Potency read?
Answer: inactive

Question: `CC(=O)N(C1=C(Cl)C(=O)c2ccccc2C1=O)C1CCCCC1` was tested. Which Potency did it give?
Answer: active: 2.82 µM
